Measurements from the supplement of paper PMC8728848.
This is one part of the list.

Legend:
Assay in all cases: glycan array binding signal (z-score within array); higher = stronger binding
Conditions in all cases: glycan notation: IUPAC condensed, linker removed
[1] = biological target: Neu5Ac(a2-3)Gal(b1-3)]Neu5Ac(a2-3)Gal(b1-4)]GlcNAc
Method in brief: (§1)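 Glycan array binding is given as a within-array Z-score, which can be read as non-binding when negative. The arrays, 3228 of them, came from the Consortium for Functional Glycomics database and were retained only where the protein sequence was available. Z-scores were averaged across arrays of the same protein sequence at different concentrations or buffers and across linkers.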

[2] = biological target: Neu5Ac(a2-3)Gal(b1-4)Glc
Method in brief: as §1

[3] = biological target: Neu5Ac(a2-3)Gal(b1-4)GlcNAc
Method in brief: as §1

[4] = biological target: Neu5Ac(a2-3)Gal(b1-4)GlcNAc(b1-2)Man
Method in brief: as §1

[5] = biological target: Neu5Ac(a2-3)Gal(b1-4)GlcNAc(b1-2)Man(a1-3)[GlcNAc(b1-4)][Neu5Ac(a2-3)Gal(b1-4)GlcNAc(b1-2)Man(a1-6)]Man(b1-4)GlcNAc(b1-4)GlcNAc
Method in brief: as §1

[6] = biological target: Neu5Ac(a2-3)Gal(b1-4)GlcNAc(b1-2)Man(a1-3)[Neu5Ac(a2-3)Gal(b1-4)GlcNAc(b1-2)Man(a1-6)]Man(b1-4)GlcNAc(b1-4)GlcNAc
Method in brief: as §1

[7] = biological target: Neu5Ac(a2-3)Gal(b1-4)GlcNAc(b1-2)Man(a1-3)[Neu5Ac(a2-3)Gal(b1-4)GlcNAc(b1-2)Man(a1-6)]Man(b1-4)GlcNAc(b1-4)[Fuc(a1-6)]GlcNAc
Method in brief: as §1

[8] = biological target: Neu5Ac(a2-3)Gal(b1-4)GlcNAc(b1-2)Man(a1-3)[Neu5Ac(a2-6)Gal(b1-4)GlcNAc(b1-2)Man(a1-6)]Man(b1-4)GlcNAc(b1-4)GlcNAc
Method in brief: as §1

[9] = biological target: Neu5Ac(a2-3)Gal(b1-4)GlcNAc(b1-2)[Neu5Ac(a2-3)Gal(b1-4)GlcNAc(b1-4)]Man(a1-3)[GlcNAc(b1-4)][Neu5Ac(a2-3)Gal(b1-4)GlcNAc(b1-2)[Neu5Ac(a2-3)Gal(b1-4)GlcNAc(b1-6)]Man(a1-6)]Man(b1-4)GlcNAc(b1-4)GlcNAc
Method in brief: as §1

[10] = biological target: Neu5Ac(a2-3)Gal(b1-4)GlcNAc(b1-2)[Neu5Ac(a2-3)Gal(b1-4)GlcNAc(b1-4)]Man(a1-3)[GlcNAc(b1-4)][Neu5Ac(a2-3)Gal(b1-4)GlcNAc(b1-4)Man(a1-6)]Man(b1-4)GlcNAc(b1-4)GlcNAc
Method in brief: as §1

[11] = biological target: Neu5Ac(a2-3)Gal(b1-4)GlcNAc(b1-2)[Neu5Ac(a2-3)Gal(b1-4)GlcNAc(b1-6)]Man(a1-6)[Neu5Ac(a2-3)Gal(b1-4)GlcNAc(b1-2)Man(a1-3)][GlcNAc(b1-4)]Man(b1-4)GlcNAc(b1-4)GlcNAc
Method in brief: as §1

[12] = biological target: Neu5Ac(a2-3)Gal(b1-4)GlcNAc(b1-3)Gal
Method in brief: as §1

[13] = biological target: Neu5Ac(a2-3)Gal(b1-4)GlcNAc(b1-3)Gal(b1-3)GlcNAc
Method in brief: as §1

[14] = biological target: Neu5Ac(a2-3)Gal(b1-4)GlcNAc(b1-3)Gal(b1-4)GlcNAc
Method in brief: as §1

[15] = biological target: Neu5Ac(a2-3)Gal(b1-4)GlcNAc(b1-3)Gal(b1-4)GlcNAc(b1-2)Man(a1-3)[Neu5Ac(a2-3)Gal(b1-4)GlcNAc(b1-3)Gal(b1-4)GlcNAc(b1-2)Man(a1-6)]Man(b1-4)GlcNAc(b1-4)GlcNAc
Method in brief: as §1

[16] = biological target: Neu5Ac(a2-3)Gal(b1-4)GlcNAc(b1-3)Gal(b1-4)GlcNAc(b1-3)Gal(b1-4)GlcNAc
Method in brief: as §1

[17] = biological target: Neu5Ac(a2-3)Gal(b1-4)GlcNAc(b1-3)Gal(b1-4)GlcNAc(b1-3)Gal(b1-4)GlcNAc(b1-2)Man(a1-3)[Neu5Ac(a2-3)Gal(b1-4)GlcNAc(b1-3)Gal(b1-4)GlcNAc(b1-3)Gal(b1-4)GlcNAc(b1-2)Man(a1-6)]GalNAc
Method in brief: as §1

[18] = biological target: Neu5Ac(a2-3)Gal(b1-4)GlcNAc(b1-3)Gal(b1-4)GlcNAc(b1-3)GalNAc
Method in brief: as §1

[19] = biological target: Neu5Ac(a2-3)Gal(b1-4)GlcNAc(b1-3)Gal(b1-4)GlcNAc(b1-3)[Neu5Ac(a2-3)Gal(b1-4)GlcNAc(b1-3)Gal(b1-4)GlcNAc(b1-6)]GalNAc
Method in brief: as §1

[20] = biological target: Neu5Ac(a2-3)Gal(b1-4)GlcNAc(b1-3)Gal(b1-4)GlcNAc(b1-6)[Gal(b1-3)]GalNAc
Method in brief: as §1

[21] = biological target: Neu5Ac(a2-3)Gal(b1-4)GlcNAc(b1-3)Gal(b1-4)[Fuc(a1-3)]GlcNAc
Method in brief: as §1

[22] = biological target: Neu5Ac(a2-3)Gal(b1-4)GlcNAc(b1-3)GalNAc
Method in brief: as §1

[23] = biological target: Neu5Ac(a2-3)Gal(b1-4)GlcNAc(b1-3)[Neu5Ac(a2-3)Gal(b1-4)GlcNAc(b1-6)]GalNAc
Method in brief: as §1

[24] = biological target: Neu5Ac(a2-3)Gal(b1-4)GlcNAc(b1-6)GalNAc
Method in brief: as §1

[25] = biological target: Neu5Ac(a2-3)Gal(b1-4)GlcNAc(b1-6)[Gal(b1-3)]GalNAc
Method in brief: as §1

[26] = biological target: Neu5Ac(a2-3)Gal(b1-4)GlcNAc(b1-6)[Neu5Ac(a2-3)Gal(b1-3)]GalNAc
Method in brief: as §1

[27] = biological target: Neu5Ac(a2-3)Gal(b1-4)GlcNAc6S
Method in brief: as §1

[28] = biological target: Neu5Ac(a2-3)Gal(b1-4)[Fuc(a1-3)]GlcNAc
Method in brief: as §1

[29] = biological target: Neu5Ac(a2-3)Gal(b1-4)[Fuc(a1-3)]GlcNAc(b1-2)Man
Method in brief: as §1

[30] = biological target: Neu5Ac(a2-3)Gal(b1-4)[Fuc(a1-3)]GlcNAc(b1-3)Gal
Method in brief: as §1

[31] = biological target: Neu5Ac(a2-3)Gal(b1-4)[Fuc(a1-3)]GlcNAc(b1-3)Gal(b1-4)GlcNAc
Method in brief: as §1

[32] = biological target: Neu5Ac(a2-3)Gal(b1-4)[Fuc(a1-3)]GlcNAc(b1-3)Gal(b1-4)[Fuc(a1-3)]GlcNAc(b1-3)Gal(b1-4)[Fuc(a1-3)]GlcNAc
Method in brief: as §1

[33] = biological target: Neu5Ac(a2-3)Gal(b1-4)[Fuc(a1-3)]GlcNAc(b1-3)GalNAc
Method in brief: as §1

[34] = biological target: Neu5Ac(a2-3)Gal(b1-4)[Fuc(a1-3)]GlcNAc(b1-6)[Gal(b1-3)]GalNAc
Method in brief: as §1

[35] = biological target: Neu5Ac(a2-3)Gal(b1-4)[Fuc(a1-3)]GlcNAc(b1-6)[Neu5Ac(a2-3)Gal(b1-3)]GalNAc
Method in brief: as §1

[36] = biological target: Neu5Ac(a2-3)Gal(b1-4)[Fuc(a1-3)]GlcNAc6S
Method in brief: as §1

[37] = biological target: Neu5Ac(a2-3)Gal6S(b1-4)GlcNAc
Method in brief: as §1

[38] = biological target: Neu5Ac(a2-3)Gal6S(b1-4)[Fuc(a1-3)]GlcNAc
Method in brief: as §1

B1: DrGRIFIN (Danio rerio), Q6DGJ1 (protein)
chain: MTLRFEASCPDGLCPGWSVILKGETPPEASKFEINFLCDRDDRVAFHFNPRFTESDIICNSYMANRWGQEERCNHFPLGVEEPFQIEIYSDNDHFHVYIDKAKVMQYKHRVEDLKTITKLQVVNDVKISSLEITKKLFY
- glycan array binding signal (z-score) [1]: -0.072
- glycan array binding signal (z-score) [2]: -0.199
- glycan array binding signal (z-score) [3]: -0.203
- glycan array binding signal (z-score) [4]: -0.16
- glycan array binding signal (z-score) [5]: -0.086
- glycan array binding signal (z-score) [6]: -0.141
- glycan array binding signal (z-score) [7]: -0.164
- glycan array binding signal (z-score) [8]: -0.211
- glycan array binding signal (z-score) [9]: -0.008
- glycan array binding signal (z-score) [10]: -0.145
- glycan array binding signal (z-score) [11]: -0.163
- glycan array binding signal (z-score) [12]: -0.158
- glycan array binding signal (z-score) [13]: -0.183
- glycan array binding signal (z-score) [14]: -0.177
- glycan array binding signal (z-score) [15]: -0.127
- glycan array binding signal (z-score) [16]: -0.196
- glycan array binding signal (z-score) [17]: -0.172
- glycan array binding signal (z-score) [18]: -0.198
- glycan array binding signal (z-score) [19]: -0.112
- glycan array binding signal (z-score) [20]: -0.206
- glycan array binding signal (z-score) [21]: -0.074
- glycan array binding signal (z-score) [22]: -0.151
- glycan array binding signal (z-score) [23]: -0.126
- glycan array binding signal (z-score) [24]: -0.092
- glycan array binding signal (z-score) [25]: -0.11
- glycan array binding signal (z-score) [26]: -0.186
- glycan array binding signal (z-score) [27]: -0.145
- glycan array binding signal (z-score) [28]: -0.161
- glycan array binding signal (z-score) [29]: -0.201
- glycan array binding signal (z-score) [30]: -0.12
- glycan array binding signal (z-score) [31]: -0.152
- glycan array binding signal (z-score) [32]: -0.165
- glycan array binding signal (z-score) [33]: -0.163
- glycan array binding signal (z-score) [34]: -0.185
- glycan array binding signal (z-score) [35]: -0.174
- glycan array binding signal (z-score) [36]: -0.148
- glycan array binding signal (z-score) [37]: -0.179
- glycan array binding signal (z-score) [38]: -0.229
